This passage reports IC50 results from patent US11618753B2 (priority 2018, dated 2023).

Counter-ions that a name gives are not always drawn.

The subject of the test is MLKL phosphorylation, HT29-L23 human colorectal adenocarcinoma cells. The test is described as follows: cells. The note with it: read-out: pMLKL HCS Cell Assay (IC50, uM).
In the case of `Nc1ncnn2c(-c3cc(F)c(Cl)c(C(=O)N[C@@H]4CN(C(=O)CC(C(F)(F)F)C(F)(F)F)C[C@@H]4F)c3)cc(C(F)(F)F)c12` [Example 632, 5-[4-amino-5-(trifluoromethyl)pyrrolo[2,1-f][1,2,4]triazin-7-yl]-2-chloro-3-fluoro-N-[(3R,4S)-4-fluoro-1-[4,4,4-trifluoro-3-(trifluoromethyl)butanoyl]pyrrolidin-3-yl]benzamide], the IC50 amounted to 0.0022 µM.
On to `COc1ncc(-c2cc(C(F)(F)F)c3c(N)ncnn23)cc1C(=O)NC1CN(Cc2ccc(C(F)(F)F)cc2)CC1F` (racemic) [Example 216, 5-[4-amino-5-(trifluoromethyl)pyrrolo[2,1-f][1,2,4]triazin-7-yl]-N-(4-fluoro-1-{[4-(trifluoromethyl)phenyl]methyl}pyrrolidin-3-yl)-2-methoxypyridine-3-carboxamide], for which the IC50 came to 0.051 µM.
The same measure for `CCC(O)(C(=O)N1C[C@H](F)[C@H](NC(=O)c2cc(-c3cc(C(F)(F)F)c4c(N)ncnn34)cnc2C)C1)C(F)(F)F` (stereo partly drawn) [Example 1231, 5-[4-amino-5-(trifluoromethyl)pyrrolo[2,1-f][1,2,4]triazin-7-yl]-N-[(3R,4S)-4-fluoro-1-[2-hydroxy-2-(trifluoromethyl)butanoyl]pyrrolidin-3-yl]-2-methylpyridine-3-carboxamide]: 0.018 µM.
The same measure for `CC(C)(F)C(=O)N1C[C@H](F)[C@H](NC(=O)c2cccc(-c3cc(C(F)(F)F)c4c(N)ncnn34)c2)C1` [Example 96, 3-[4-amino-5-(trifluoromethyl)pyrrolo[2,1-f][1,2,4]triazin-7-yl]-N-[(3R,4S)-4-fluoro-1-(2-fluoro-2-methylpropanoyl)pyrrolidin-3-yl]benzamide]: 0.082 µM; for `Cc1nc(C)c(-c2cc(C(F)(F)F)c3c(N)ncnn23)cc1C(=O)N1CCC[C@H](Cc2ccc(F)cc2)C1` [Example 530, 7-{5-[(3R)-3-[(4-fluorophenyl)methyl]piperidine-1-carbonyl]-2,6-dimethylpyridin-3-yl}-5-(trifluoromethyl)pyrrolo[2,1-f][1,2,4]triazin-4-amine]: 0.043 µM.
Turning to `COc1ncc(-c2cc(C(F)(F)F)c3c(N)ncnn23)cc1C(=O)Nc1cnn(Cc2ccccc2)c1` [Example 110, 5-[4-amino-5-(trifluoromethyl)pyrrolo[2,1-f][1,2,4]triazin-7-yl]-N-(1-benzyl-1H-pyrazol-4-yl)-2-methoxypyridine-3-carboxamide], the IC50 was 0.0012 µM.
The same measure for `COc1cc(F)c(-c2cc(CN3CCC(C(F)(F)F)CC3)c3c(N)ncnn23)cc1C(=O)N[C@@H]1CN(C(=O)C2CC(F)(F)C2)C[C@@H]1F` [Example 1640, 5-(4-amino-5-{[4-(trifluoromethyl)piperidin-1-yl]methyl}pyrrolo[2,1-f][1,2,4]triazin-7-yl)-N-[(3R,4S)-1-(3,3-difluorocyclobutanecarbonyl)-4-fluoropyrrolidin-3-yl]-4-fluoro-2-methoxybenzamide]: 0.0038 µM; for `COc1cc(F)c(-c2cc(C(F)(F)F)c3c(N)ncnn23)cc1C(=O)N[C@@H]1CN(C(=O)c2ccc(F)cc2)C[C@@H]1F` [Example 873, 5-[4-amino-5-(trifluoromethyl)pyrrolo[2,1-f][1,2,4]triazin-7-yl]-4-fluoro-N-[(3R,4S)-4-fluoro-1-(4-fluorobenzoyl)pyrrolidin-3-yl]-2-methoxybenzamide]: 0.0086 µM.
`COc1ncc(-c2cc(C(F)(F)F)c3c(N)ncnn23)cc1C(=O)NC1CN(C(=O)C2CC(F)(F)C2)CC1F` (single isomer, unassigned) [Example 37, 5-[4-amino-5-(trifluoromethyl)pyrrolo[2,1-f][1,2,4]triazin-7-yl]-N-[1-(3,3-difluorocyclobutanecarbonyl)-4-fluoropyrrolidin-3-yl]-2-methoxypyridine-3-carboxamide]: the IC50 was 0.042 µM.
Under `CCOc1ccc(-c2cc(C(F)(F)F)c3c(N)ncnn23)cc1C(=O)N[C@@H]1CN(C(=O)C(C)(C)O)C[C@@H]1F` [Example 1100, 5-[4-amino-5-(trifluoromethyl)pyrrolo[2,1-f][1,2,4]triazin-7-yl]-2-ethoxy-N-[(3R,4S)-4-fluoro-1-(2-hydroxy-2-methylpropanoyl)pyrrolidin-3-yl]benzamide] stands 0.247 µM.
The same measure for `Nc1ncnn2c(-c3cncc(C(=O)N[C@@H]4CN(C(=O)C5CCC(F)(F)CC5)C[C@@H]4F)c3)cc(C(F)(F)F)c12` [Example 280, 5-[4-amino-5-(trifluoromethyl)pyrrolo[2,1-f][1,2,4]triazin-7-yl]-N-[(3R,4S)-1-(4,4-difluorocyclohexanecarbonyl)-4-fluoropyrrolidin-3-yl]pyridine-3-carboxamide]: 0.351 µM; for `Nc1ncnn2c(-c3cccc(C(=O)N[C@@H]4CN(C(=O)[C@@H](O)C(F)(F)F)C[C@@H]4F)c3)cc(CN3CC(F)(F)C3)c12` [Example 1164, 3-{4-amino-5-[(3,3-difluoroazetidin-1-yl)methyl]pyrrolo[2,1-f][1,2,4]triazin-7-yl}-N-[(3R,4S)-4-fluoro-1-[(2R)-3,3,3-trifluoro-2-hydroxypropanoyl]pyrrolidin-3-yl]benzamide]: 0.006 µM; for `COc1ncc(-c2cc(C(F)(F)F)c3c(N)ncnn23)cc1C(=O)N[C@@H]1CN(C(=O)[C@@](OC)(c2ccccc2)C(F)(F)F)C[C@@H]1F` [Example 1219, 5-[4-amino-5-(trifluoromethyl)pyrrolo[2,1-f][1,2,4]triazin-7-yl]-N-[(3R,4S)-4-fluoro-1-[(2S)-3,3,3-trifluoro-2-methoxy-2-phenylpropanoyl]pyrrolidin-3-yl]-2-methoxypyridine-3-carboxamide]: 0.27 µM.
As to `Cc1cc(F)c(-c2cc(C(F)(F)F)c3c(N)ncnn23)cc1C(=O)N[C@@H]1CN(C(=O)c2ncccc2C(F)(F)F)C[C@@H]1F` [Example 846, 5-[4-amino-5-(trifluoromethyl)pyrrolo[2,1-f][1,2,4]triazin-7-yl]-4-fluoro-N-[(3R,4S)-4-fluoro-1-[3-(trifluoromethyl)pyridine-2-carbonyl]pyrrolidin-3-yl]-2-methylbenzamide], the IC50 came to 0.057 µM.
As for `C=CCOC(=O)N1C[C@H](F)[C@H](NC(=O)c2cc(-c3cc(C(F)(F)F)c4c(N)ncnn34)cnc2OC)C1` [Example 1426, prop-2-en-1-yl (3R,4S)-3-{5-[4-amino-5-(trifluoromethyl)pyrrolo[2,1-f][1,2,4]triazin-7-yl]-2-methoxypyridine-3-amido}-4-fluoropyrrolidine-1-carboxylate], the 50% inhibitory concentration (IC50) stood at 0.011 µM.
Take `COc1ccc(-c2cc(C(F)(F)F)c3c(N)ncnn23)cc1C(=O)N[C@@H]1CN(C(=O)[C@@](C)(O)C(F)(F)F)C[C@@H]1F` [Example 1120, 5-[4-amino-5-(trifluoromethyl)pyrrolo[2,1-f][1,2,4]triazin-7-yl]-N-[(3R,4S)-4-fluoro-1-[(28)-3,3,3-trifluoro-2-hydroxy-2-methylpropanoyl]pyrrolidin-3-yl]-2-methoxybenzamide]: the IC50 is 0.0015 µM.
As for `COc1ncc(-c2c(F)cc3c(N)ncnn23)cc1C(=O)Nc1cnn(Cc2ccccc2)c1` [Example 62, 5-(4-amino-6-fluoropyrrolo[2,1-f][1,2,4]triazin-7-yl)-N-(1-benzyl-1H-pyrazol-4-yl)-2-methoxynicotinamide], the IC50 was determined as 0.037 µM.
For the compound `COc1ncc(-c2cc(C(F)(F)F)c3c(N)ncnn23)cc1C(=O)N[C@@H]1CN(C(=O)C2(O)CCCC2)C[C@@H]1F` [Example 315, 5-[4-amino-5-(trifluoromethyl)pyrrolo[2,1-f][1,2,4]triazin-7-yl]-N-[(3R,4S)-4-fluoro-1-(1-hydroxycyclopentanecarbonyl)pyrrolidin-3-yl]-2-methoxy-pyridine-3-carboxamide, TFA], the IC50 was determined as 0.019 µM.
The same measure for `COc1ncc(-c2cc(C(F)(F)F)c3c(N)ncnn23)cc1C(=O)NC1CN(Cc2cc(F)cc(F)c2)CC1F` (racemic) [Example 238, 5-[4-amino-5-(trifluoromethyl)pyrrolo[2,1-f][1,2,4]triazin-7-yl]-N-{1-[(3,5-difluorophenyl)methyl]-4-fluoropyrrolidin-3-yl}-2-methoxypyridine-3-carboxamide]: 0.01 µM; for `COc1ncc(-c2cc(C(F)(F)F)c3c(N)ncnn23)cc1C(=O)NC1CN(Cc2ccccn2)CC1F` (racemic) [Example 210, 5-[4-amino-5-(trifluoromethyl)pyrrolo[2,1-f][1,2,4]triazin-7-yl]-N-{4-fluoro-1-[(pyridin-2-yl)methyl]pyrrolidin-3-yl}-2-methoxypyridine-3-carboxamide]: 0.09 µM.
The same measure for `Nc1ncnn2c(-c3ccc(F)c(C(=O)N[C@@H]4CN(C(=O)C5CC5(F)F)C[C@@H]4F)c3)cc(C(F)(F)F)c12` (stereo partly drawn) [Example 259, 5-[4-amino-5-(trifluoromethyl)pyrrolo[2,1-f][1,2,4]triazin-7-yl]-N-[(3R,4S)-1-(2,2-difluorocyclopropanecarbonyl)-4-fluoropyrrolidin-3-yl]-2-fluorobenzamide]: 0.02 µM; for `COc1ncc(-c2cc(C(F)(F)F)c3c(N)ncnn23)cc1C(=O)NC1CN(Cc2ccc(F)cc2)CC1F` (racemic) [Example 213, 5-[4-amino-5-(trifluoromethyl)pyrrolo[2,1-f][1,2,4]triazin-7-yl]-N-{4-fluoro-1-[(4-fluorophenyl)methyl]pyrrolidin-3-yl}-2-methoxypyridine-3-carboxamide]: 0.0023 µM; for `Nc1ncnn2c(-c3ccc(Cl)c(C(=O)N[C@@H]4CN(C(=O)C5CCC(F)(F)CC5)C[C@@H]4F)c3)cc(C(F)(F)F)c12` [Example 938, 5-[4-amino-5-(trifluoromethyl)pyrrolo[2,1-f][1,2,4]triazin-7-yl]-2-chloro-N-[(3R,4S)-1-(4,4-difluorocyclohexanecarbonyl)-4-fluoropyrrolidin-3-yl]benzamide]: 0.015 µM.
Take `COc1ncc(-c2cc(C(F)(F)F)c3c(N)ncnn23)cc1C(=O)N[C@@H]1CN(C(=O)C2(C(F)(F)F)CCNC2)C[C@@H]1F` (stereo partly drawn) [Example 1680, 5-(4-amino-5-(trifluoromethyl)pyrrolo[2,1-f][1,2,4]triazin-7-yl)-N-((3R,4S)-4-fluoro-1-(3-(trifluoromethyl)pyrrolidine-3-carbonyl)pyrrolidin-3-yl)-2-methoxynicotinamide]: the IC50 stood at 0.159 µM.

For orientation: IC50 means the point on the concentration scale where inhibition reaches its midpoint.
